According to the supplement of paper PMC12217912:
The list shows a part of the results. Sequences were assembled here from the parent chain. Inactive controls read about 0.05.

B1: TEV protease; numbered along this chain (parent)
chain: MGESLFKGPRDYNPISSSICHLTNESDGHTTSLYGIGFGPFIITNKHLFRRNNGTLVVQSLHGVFKVKDTTTLQQHLVDGRDMIIIRMPKDFPPFPQKLKFREPQREERICLVTTNFQTKSMSSMVSDTSCTFPSGDGIFWKHWIQTKDGQCGSPLVSTRDGFIVGIHSASNFTNTNNYFTSVPKNFMELLTNQEAQQWVSGWRLNADSVLWGGHKVFMVKPEEPFQPVKEATQL

Variants of: B1
Assay: raw area under fraction-flipped curve 0-4 h after induction (AUC4h, not background-subtracted), DNA-recorder readout of cleavage of the substrate (dimensionless); higher = more cleavage of the substrate by the protease variant
Details: temperature: 34 °C; time window: 0-4 h after rhamnose induction
Experimental: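 In vivo DNA recorder in E. coli TOP10(DE3) ΔrhaA at 34 °C. Each TEVp single-site mutant (parent TEVp 0) is paired with a single-site variant of the 7-mer TEVs (canonical ENLYFQ|S). The substrate sits between flexible linkers in a Bxb1-sfGFP-TEVs-SsrA fusion, so cleavage stabilises Bxb1 and speeds flipping of a recombination array, read by NGS. The value is the raw area under the fraction-flipped curve over 0-4 h after rhamnose induction (AUC4h), with ≥20 reads per time point. It is not background-subtracted; inactive controls average about 0.047.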
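Further: Bxb1 expression induced with 0.2% (w/v) L-rhamnose at OD600 near 0.5, cultures sampled hourly, flipped fraction per protease–substrate barcode pair counted by paired-end Illumina sequencing.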

Variant | area with substrate ENLYFQA | area with substrate ENLYFQC | area with substrate ENLYFQD | area with substrate ENLYFQF | area with substrate ENLYFQG | area with substrate ENLYFQH | area with substrate ENLYFQI | area with substrate ENLYFQK | area with substrate ENLYFQM | area with substrate ENLYFQN | area with substrate ENLYFQP | area with substrate ENLYFQQ | area with substrate ENLYFQR | area with substrate ENLYFQS | area with substrate ENLYFQT | area with substrate ENLYFQV | area with substrate ENLYFQW | area with substrate ENLYFQY | area with substrate ENLYFQL | area with substrate ENLYFQE
S60V | 0.0915 | 0.0975 | 0.072 | 0.109 | 0.101 | 0.0664 | 0.054 | 0.0578 | 0.0793 | 0.0774 | 0.0614 | 0.0561 | 0.0517 | 0.0908 | 0.0537 | 0.0538 | 0.0451 | 0.0689 |  | 
G202S | 0.0772 | 0.0881 |  | 0.0652 | 0.0722 |  | 0.0814 | 0.0631 | 0.0635 |  |  |  | 0.0529 | 0.0776 | 0.0667 | 0.0494 | 0.0648 | 0.0617 |  | 
T115C | 0.1 | 0.113 | 0.0756 |  | 0.0894 | 0.0791 |  |  | 0.0864 |  | 0.0641 | 0.0594 | 0.0694 | 0.104 | 0.0698 | 0.0655 | 0.0777 | 0.0815 | 0.0535 | 
F133D | 0.13 | 0.104 |  | 0.0808 | 0.0776 | 0.0807 | 0.0604 | 0.115 | 0.0779 | 0.0726 | 0.0731 |  | 0.0585 | 0.0958 | 0.0613 | 0.0767 | 0.0995 |  |  | 
T55E | 0.0907 | 0.101 | 0.0774 |  | 0.0782 | 0.0765 | 0.0578 | 0.0609 | 0.0891 | 0.0709 |  | 0.0861 | 0.0696 | 0.0987 | 0.0662 | 0.0464 |  | 0.0856 | 0.0643 | 
G28S | 0.0671 |  | 0.0559 |  |  | 0.0817 | 0.0629 | 0.0662 | 0.0754 | 0.0413 | 0.0557 |  | 0.0557 | 0.0883 | 0.0639 | 0.0604 | 0.0585 | 0.0861 | 0.0557 | 
K90I | 0.0943 | 0.13 | 0.0591 |  | 0.157 | 0.0912 | 0.0591 | 0.0548 | 0.0932 | 0.0786 | 0.0663 | 0.0724 | 0.0604 | 0.104 | 0.0727 |  | 0.0679 | 0.0849 | 0.065 | 0.066
H215G | 0.058 | 0.0448 |  | 0.048 | 0.0876 | 0.0659 | 0.0585 | 0.0584 | 0.0754 | 0.0519 | 0.0646 | 0.0785 | 0.0637 | 0.0611 | 0.0511 | 0.0599 | 0.0702 |  | 0.0618 | 
L33V | 0.074 | 0.094 | 0.0623 | 0.0794 | 0.126 |  |  | 0.0441 | 0.0813 | 0.0815 |  | 0.0779 | 0.0591 | 0.0975 | 0.0774 | 0.0708 |  | 0.0681 | 0.0663 | 0.061
Q118N | 0.11 | 0.15 |  | 0.071 | 0.0802 | 0.106 | 0.066 | 0.0696 | 0.0946 |  |  | 0.0598 | 0.0519 | 0.105 | 0.0652 | 0.0473 |  | 0.0827 | 0.054 | 
Q118H | 0.0563 | 0.129 |  | 0.0978 |  | 0.0823 |  | 0.0832 |  |  |  |  | 0.0578 | 0.0979 | 0.0741 |  |  |  | 0.0603 | 
R81G | 0.0804 | 0.0992 |  |  | 0.0867 |  | 0.0629 |  |  |  |  |  | 0.0567 | 0.0929 | 0.0597 |  |  | 0.0813 | 0.0599 | 0.0633
E231G | 0.114 |  | 0.0683 |  | 0.105 | 0.0709 |  | 0.057 | 0.0887 | 0.076 | 0.0463 | 0.0651 | 0.0576 | 0.107 | 0.0693 | 0.0898 | 0.0714 |  | 0.0692 | 
V210K | 0.0721 | 0.0804 | 0.0562 | 0.0524 | 0.0568 | 0.106 | 0.0744 | 0.0487 | 0.0682 | 0.0608 | 0.0567 |  | 0.0692 | 0.0769 | 0.0495 | 0.0869 | 0.0577 | 0.0543 | 0.062 | 
V210G | 0.0897 | 0.11 |  | 0.0623 |  | 0.0677 |  | 0.0686 | 0.0467 |  | 0.0735 |  | 0.0722 | 0.0934 | 0.0788 | 0.0484 | 0.0466 |  | 0.0498 | 
V165D | 0.0508 | 0.0438 | 0.0603 |  | 0.0519 |  | 0.0339 |  |  | 0.0585 | 0.0579 | 0.0448 |  | 0.0515 |  | 0.0471 |  |  | 0.0458 | 
K221N | 0.0968 | 0.105 | 0.0698 |  | 0.126 | 0.074 | 0.062 | 0.0586 | 0.0776 | 0.0845 | 0.0822 |  | 0.0653 | 0.103 | 0.0573 | 0.0514 | 0.0606 |  | 0.0594 | 
F218S | 0.122 | 0.116 | 0.0511 |  | 0.0891 | 0.0807 | 0.057 |  | 0.0839 | 0.0947 | 0.0491 |  | 0.0607 | 0.104 | 0.0627 |  | 0.0612 |  |  | 
I164E | 0.0663 | 0.0478 | 0.0519 |  | 0.0544 | 0.0495 | 0.056 | 0.0534 | 0.0513 | 0.0582 | 0.0415 |  | 0.0449 | 0.0542 | 0.0547 |  | 0.0453 | 0.0315 | 0.0641 | 0.0422
S4E | 0.131 | 0.15 | 0.0807 |  |  | 0.0992 |  | 0.0495 | 0.105 | 0.0889 |  |  | 0.0508 | 0.121 | 0.0659 |  | 0.0713 | 0.0721 | 0.0633 | 
S169C | 0.0937 | 0.0819 |  | 0.063 | 0.0857 | 0.127 |  | 0.0646 | 0.0711 | 0.067 | 0.0664 |  | 0.0627 | 0.0901 | 0.0707 |  | 0.0618 | 0.0646 | 0.0482 | 
V57M | 0.114 |  | 0.0504 | 0.0522 |  |  | 0.0588 | 0.0674 |  | 0.0979 |  | 0.0751 | 0.052 | 0.103 | 0.0792 | 0.053 | 0.0789 | 0.0346 | 0.0555 | 
F117M | 0.108 |  |  |  | 0.0961 |  | 0.079 |  | 0.099 |  |  |  | 0.0664 | 0.104 |  | 0.0423 |  |  |  | 
G213K | 0.0634 | 0.0605 | 0.0557 |  | 0.0614 | 0.051 | 0.0614 | 0.0508 | 0.0612 | 0.0563 | 0.062 |  | 0.0686 | 0.0614 | 0.0564 | 0.0555 | 0.0643 | 0.0474 | 0.0597 | 
H47A | 0.0522 |  | 0.0576 |  | 0.0731 | 0.0619 | 0.0585 |  |  | 0.0606 |  |  | 0.0531 | 0.0605 |  | 0.0575 |  |  |  | 
